Among all 150,000 compounds or so, about 540 (0.36%) showed an effect of 50% or more. The list shows a part of the results.

The test system of this assay is Plasmodium falciparum. The experiment in a line: Primary screen in NF54 nanoGlo assay, in single point, at 2uM, 72h; a lower Z score goes with more inhibition. The assay is classed as functional, Erythrocyte. The settings on record: timepoint 72 hour.
Usually % Inhibition stands for the relative decrease from the control value, in per cent. `O=C(Nc1ccc2c(c1)OCCCO2)c1n[nH]c2ccccc12`: the “% Inhibition” value is listed as -8% and the Z score is reported as 1.42.

Take `Nc1cnccc1-c1cccc(C(=O)NCCCC[C@H]2CCCO2)c1`: the “% Inhibition” value is -17% and the Z score came out at 1.66.

For `CCN(C[C@H]1CCCO1)C(=O)CCc1nnc(CCc2ccc(OC)cc2)o1`, the “% Inhibition” value is recorded as -24% and the Z score was found to be 2.15.

For `c1ccc(CNc2ccc(NCc3ccccc3)nn2)cc1`, the “% Inhibition” value was 9% and the Z score is listed as -1.12.

Take `Cc1cc(=O)n(CC(=O)NCc2ccccc2)c(N)n1`: the “% Inhibition” value was -15% and the Z score is listed as 1.58.

Consider `COCCOCCS(=O)(=O)Nc1cccc2c1OC(C)(C)CC2`, for which the “% Inhibition” value is -5% and the Z score is on record as 0.71.

Consider `Cc1ccc2oc(-c3noc(-c4ccc(C#N)cc4)n3)c(C)c2c1`, for which the “% Inhibition” value is -2% and the Z score is 0.21.

For `O=C(c1cnc2ccccc2n1)N1CC[C@H](Oc2ncc(F)cn2)C1`, the “% Inhibition” value was 4% and the Z score is given as -0.58.

Take `CC(C)(C)n1nc(CC(N)=O)nc1CCc1cn[nH]c1`: the “% Inhibition” value is recorded as -7% and the Z score turned out to be 0.86.

In the case of `CC1=NS(=O)(=O)N(C)C=C1C(=O)NCc1nc(C(C)C)cs1`, the “% Inhibition” value was -18% and the Z score stood at 1.88.

With `O=C(Nc1cccc(-c2noc(C3CCCC3)n2)c1)c1cccc(Cl)c1`, the “% Inhibition” value was -17% and the Z score is reported as 2.96.

For the molecule `OC1(Cc2cccc(Cl)c2)CCN(CC2CCc3ncnn32)C1` (centres undefined), the “% Inhibition” value is reported as -3% and the Z score turned out to be 0.57.

Regarding `Clc1snnc1CN1CCO[C@@H](Cn2cccn2)C1`, the “% Inhibition” value is on record as -12% and the Z score was determined as 1.68.

In the case of `O=C(N[C@H]1CC[C@H](Nc2ccccn2)CC1)c1ccc(S(=O)(=O)N2CCCC2)cc1`, the “% Inhibition” value is -11% and the Z score is on record as 1.06.

`Cc1ncc(CN(C)C(=O)Cc2cc(Cl)ccc2Cl)s1`: the “% Inhibition” value amounted to 11% and the Z score is recorded as -1.62.

Consider `CC1(C)Cc2cccc(Oc3ncncc3Br)c2O1`, for which the “% Inhibition” value is on record as -3% and the Z score stood at 0.28.

For the molecule `O=S(=O)(Cc1cccc(F)c1)N1CCC(n2ccnn2)CC1`, the “% Inhibition” value is recorded as -22% and the Z score is recorded as 2.5.

As to `COCC(=O)NCc1ccc(OC)c(OC(F)F)c1`, the “% Inhibition” value is -13% and the Z score was found to be 2.03.

For `FC(F)(F)[C@@H]1CCN(Cc2c[nH]c3nccnc23)CC12CCOCC2`, the “% Inhibition” value was -2% and the Z score is listed as 0.4.

`CC(C)(C(=O)NCC1(c2ccccc2)CC1)[C@H](O)c1cccc(O)c1`: the “% Inhibition” value came to 22% and the Z score is given as -2.83.

For the molecule `C=CCCCn1nnc(CN(C)C(=O)c2ccccc2)n1`, the “% Inhibition” value is listed as -3% and the Z score amounted to 0.63.

On to `CO[C@H]1CCOC[C@@H]1NC1CCN(c2ncc3ccc(F)cc3n2)CC1`, for which the “% Inhibition” value is recorded as 1% and the Z score is on record as -0.16.

For the molecule `O=C(O)C1CCCN(C(=O)C2CC2C2CCCCC2)C1` (centres undefined), the “% Inhibition” value is -14% and the Z score was determined as 1.93.

For `c1ccc(-c2cc(CNc3nncc(-c4cccc5ccccc45)n3)n[nH]2)cc1`, the “% Inhibition” value was found to be 7% and the Z score is reported as -0.98.

`Cc1csc(NC(=O)Cc2c(C)nc(C)[nH]c2=O)n1`: the “% Inhibition” value was 11% and the Z score is given as -1.46.

Consider `O=C(Cn1cnc(-c2nc(-c3ccccc3)cs2)c1)NCc1cccc(Cl)c1`, for which the “% Inhibition” value is -9% and the Z score was found to be 1.19.

Take `Cc1cccc(O[C@@H](C)C(=O)N(C)C2CN(c3ccc4nnc(C)n4n3)C2)c1C`: the “% Inhibition” value is -13% and the Z score worked out at 1.42.

Take `CC(C)(C)n1nc2nc(N3CCCC3)nc(-c3cccc(Oc4ccccc4)c3)c2c1N`: the “% Inhibition” value was -15% and the Z score is listed as 2.25.

On to `Cc1nc2n(n1)C[C@@H](Nc1ccc3nccnc3n1)CC2`, for which the “% Inhibition” value is recorded as 3% and the Z score is -0.54.

For `C#C[C@H](C)OC(=O)c1cc(C(C)C)[nH]n1`, the “% Inhibition” value is given as -1% and the Z score came out at 0.12.

Take `COC(=O)CCC(=O)NCc1cccnc1N1CCCCCCC1`: the “% Inhibition” value was found to be 5% and the Z score is reported as -0.58.

`C[C@H](NC(=O)C1=NN(C)C(=O)CC1)c1ccccn1`: the “% Inhibition” value is given as 19% and the Z score was -2.48.

As to `OC1(Cc2cc(-c3ccccc3)no2)CCN(CC(c2ccccc2)c2ccccc2)CC1`, the “% Inhibition” value is given as -10% and the Z score is given as 1.36.

Take `CCC1CC(CC(=O)Nc2ccccc2-c2ncco2)CCO1` (centres undefined): the “% Inhibition” value is -7% and the Z score worked out at 1.19.

For `CC1=NN(c2nc(-c3ccccc3)no2)[C@@](O)(C(F)(F)F)C1`, the “% Inhibition” value is given as -3% and the Z score came out at 0.5.

Consider `CS(=O)(=O)c1ccc(CN2CCC([C@@H](O)CCc3ccccc3)CC2)cc1`, for which the “% Inhibition” value is reported as -3% and the Z score is recorded as 0.41.

Consider `Cc1cc(-c2ccc(C(=O)N3CCC(F)(F)CC3)cc2)c(=O)[nH]c1C`, for which the “% Inhibition” value is -7% and the Z score amounted to 0.95.

On to `CC1CC(C)CN(S(=O)(=O)NCC(O)c2c(F)cccc2F)C1` (centres undefined), for which the “% Inhibition” value is on record as -15% and the Z score was determined as 2.11.

`CCc1nc(CCN=C(NC)NC)sc1C`: the “% Inhibition” value is listed as 4% and the Z score is -0.35.

For the molecule `CN1CC[C@H](NC(=O)CCc2cc3ccccc3[nH]c2=O)CC1=O`, the “% Inhibition” value is reported as -14% and the Z score stood at 1.45.

Consider `CCCn1c(C)nnc1COC(=O)c1cc(Cl)c(Cl)[nH]1`, for which the “% Inhibition” value is given as -14% and the Z score worked out at 1.57.

On to `CN1C(=O)N(CC[C@H]2CCCO2)S(=O)(=O)c2ccccc21`, for which the “% Inhibition” value is reported as -9% and the Z score came out at 0.98.

Values taken from ChEMBL document CHEMBL4888484, “Replenishing the malaria drug discovery pipeline: Screening and hit evaluation of the MMV Hit Generation Library 1 (HGL1) against asexual blood stage Plasmodium falciparum ,using a nano luciferase reporter read-out” (2022).
